# Some of the results follow. Antibody binding of pooled human sera (four to six donors per pool; dilution not stated) to peptides of the Trypanosoma cruzi antigen TSSA on microarrays. Quantile-normalised fluorescence in arbitrary units, mean of duplicate arrays; higher = more binding. No active / inactive call. The uninfected pools are read here as the healthy donors of the same country. The strongest signals lie near the top of the scale (about 60,000).
# Tests used:
# Assay in all cases: antibody binding signal (normalised fluorescence) (arbitrary fluorescence units); higher = stronger serum antibody binding to peptide
# [1] = test system: pooled sera of chronic Chagas disease patients, Bolivia
# Protocol: (§1)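 Microarray of 15-residue peptides over residues 30-55 of Trypanosoma cruzi TSSAII, each with 1 to 10 substitutions at naturally variable positions, probed with one serum pool per country.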
# [2] = test system: pooled sera of chronic Chagas disease patients, Brazil
# Protocol: as §1
# [3] = test system: pooled sera of chronic Chagas disease patients, Colombia
# Protocol: as §1
# [4] = test system: pooled sera of chronic Chagas disease patients, Mexico
# Protocol: as §1
# [5] = test system: pooled sera of chronic Chagas disease patients, USA
# Protocol: as §1
# [6] = test system: pooled sera of uninfected people, Argentina
# Protocol: as §1
# [7] = test system: pooled sera of uninfected people, Bolivia
# Protocol: as §1
# [8] = test system: pooled sera of uninfected people, Brazil
# Protocol: as §1
# [9] = test system: pooled sera of uninfected people, Colombia
# Protocol: as §1
# [10] = test system: pooled sera of uninfected people, Mexico
# Protocol: as §1
# [11] = test system: pooled sera of uninfected people, USA
# Protocol: as §1
sequence,measurement,setting,value
TDNKAATGETPSQSG,antibody binding signal,[1],4680
same,antibody binding signal,[2],23900
same,antibody binding signal,[3],109
same,antibody binding signal,[4],212
same,antibody binding signal,[5],13000
same,antibody binding signal,[6],98.2
same,antibody binding signal,[7],342
same,antibody binding signal,[8],206
same,antibody binding signal,[9],106
same,antibody binding signal,[10],225
same,antibody binding signal,[11],90.6
GKDKKTATGEAPSPS,antibody binding signal,[1],2800
same,antibody binding signal,[2],3230
same,antibody binding signal,[3],832
same,antibody binding signal,[4],995
same,antibody binding signal,[5],14000
same,antibody binding signal,[6],198
same,antibody binding signal,[7],72.8
same,antibody binding signal,[8],99.4
same,antibody binding signal,[9],90.1
same,antibody binding signal,[10],73.6
same,antibody binding signal,[11],79
GKDNKAATGGTPSPS,antibody binding signal,[1],415
same,antibody binding signal,[2],894
same,antibody binding signal,[3],1920
same,antibody binding signal,[4],2550
same,antibody binding signal,[5],2000
same,antibody binding signal,[6],142
same,antibody binding signal,[7],246
same,antibody binding signal,[8],196
same,antibody binding signal,[9],198
same,antibody binding signal,[10],89.2
same,antibody binding signal,[11],81.7
GTDNKTATGEAPSPS,antibody binding signal,[1],30300
same,antibody binding signal,[2],33000
same,antibody binding signal,[3],188
same,antibody binding signal,[4],280
same,antibody binding signal,[5],21300
same,antibody binding signal,[6],160
same,antibody binding signal,[7],586
same,antibody binding signal,[8],1110
same,antibody binding signal,[9],116
same,antibody binding signal,[10],102
same,antibody binding signal,[11],113
DNKTAAGGAPSQSGA,antibody binding signal,[1],573
same,antibody binding signal,[2],693
same,antibody binding signal,[3],5230
same,antibody binding signal,[4],577
same,antibody binding signal,[5],380
same,antibody binding signal,[6],326
same,antibody binding signal,[7],492
same,antibody binding signal,[8],781
same,antibody binding signal,[9],284
same,antibody binding signal,[10],644
same,antibody binding signal,[11],249
PSGKDKKTATGEAPS,antibody binding signal,[1],3650
same,antibody binding signal,[2],7760
same,antibody binding signal,[3],2390
same,antibody binding signal,[4],2410
same,antibody binding signal,[5],15200
same,antibody binding signal,[6],198
same,antibody binding signal,[7],400
same,antibody binding signal,[8],92.8
same,antibody binding signal,[9],130
same,antibody binding signal,[10],81.4
same,antibody binding signal,[11],95.7
TENKPATGETPSQPG,antibody binding signal,[1],32200
same,antibody binding signal,[2],44300
same,antibody binding signal,[3],287
same,antibody binding signal,[4],657
same,antibody binding signal,[5],29000
same,antibody binding signal,[6],404
same,antibody binding signal,[7],1100
same,antibody binding signal,[8],463
same,antibody binding signal,[9],234
same,antibody binding signal,[10],1710
same,antibody binding signal,[11],279
SGTENKTATGETPSQ,antibody binding signal,[1],20400
same,antibody binding signal,[2],23700
same,antibody binding signal,[3],208
same,antibody binding signal,[4],192
same,antibody binding signal,[5],10600
same,antibody binding signal,[6],487
same,antibody binding signal,[7],389
same,antibody binding signal,[8],186
same,antibody binding signal,[9],220
same,antibody binding signal,[10],198
same,antibody binding signal,[11],160
TDNKTAAGETPSPSG,antibody binding signal,[1],346
same,antibody binding signal,[2],599
same,antibody binding signal,[3],248
same,antibody binding signal,[4],328
same,antibody binding signal,[5],1890
same,antibody binding signal,[6],156
same,antibody binding signal,[7],355
same,antibody binding signal,[8],245
same,antibody binding signal,[9],136
same,antibody binding signal,[10],273
same,antibody binding signal,[11],2130
GKDNKTATGGTPSPS,antibody binding signal,[1],303
same,antibody binding signal,[2],488
same,antibody binding signal,[3],2400
same,antibody binding signal,[4],1460
same,antibody binding signal,[5],1540
same,antibody binding signal,[6],194
same,antibody binding signal,[7],128
same,antibody binding signal,[8],124
same,antibody binding signal,[9],204
same,antibody binding signal,[10],77.2
same,antibody binding signal,[11],133
PPSGTEKKPAAGGTP,antibody binding signal,[1],5550
same,antibody binding signal,[2],35500
same,antibody binding signal,[3],4330
same,antibody binding signal,[4],8020
same,antibody binding signal,[5],6830
same,antibody binding signal,[6],1340
same,antibody binding signal,[7],1060
same,antibody binding signal,[8],2410
same,antibody binding signal,[9],367
same,antibody binding signal,[10],352
same,antibody binding signal,[11],873
KDNKPATGGTPSQSG,antibody binding signal,[1],402
same,antibody binding signal,[2],606
same,antibody binding signal,[3],339
same,antibody binding signal,[4],287
same,antibody binding signal,[5],335
same,antibody binding signal,[6],360
same,antibody binding signal,[7],426
same,antibody binding signal,[8],252
same,antibody binding signal,[9],186
same,antibody binding signal,[10],300
same,antibody binding signal,[11],146
TENKTATGGTPSPSG,antibody binding signal,[1],1270
same,antibody binding signal,[2],551
same,antibody binding signal,[3],381
same,antibody binding signal,[4],423
same,antibody binding signal,[5],821
same,antibody binding signal,[6],254
same,antibody binding signal,[7],171
same,antibody binding signal,[8],437
same,antibody binding signal,[9],583
same,antibody binding signal,[10],514
same,antibody binding signal,[11],202
GKEKKPATGGTPSPP,antibody binding signal,[1],502
same,antibody binding signal,[2],2120
same,antibody binding signal,[3],4750
same,antibody binding signal,[4],8490
same,antibody binding signal,[5],6000
same,antibody binding signal,[6],208
same,antibody binding signal,[7],119
same,antibody binding signal,[8],216
same,antibody binding signal,[9],166
same,antibody binding signal,[10],122
same,antibody binding signal,[11],267
TPPSGKDKKPAAGET,antibody binding signal,[1],2110
same,antibody binding signal,[2],5600
same,antibody binding signal,[3],408
same,antibody binding signal,[4],53400
same,antibody binding signal,[5],790
same,antibody binding signal,[6],452
same,antibody binding signal,[7],601
same,antibody binding signal,[8],103
same,antibody binding signal,[9],265
same,antibody binding signal,[10],145
same,antibody binding signal,[11],128
GTDKKAAAGEAPSQP,antibody binding signal,[1],9460
same,antibody binding signal,[2],40000
same,antibody binding signal,[3],3020
same,antibody binding signal,[4],472
same,antibody binding signal,[5],12200
same,antibody binding signal,[6],127
same,antibody binding signal,[7],354
same,antibody binding signal,[8],133
same,antibody binding signal,[9],98.8
same,antibody binding signal,[10],222
same,antibody binding signal,[11],121
TENKPAAGEAPSQPG,antibody binding signal,[1],26000
same,antibody binding signal,[2],44100
same,antibody binding signal,[3],332
same,antibody binding signal,[4],487
same,antibody binding signal,[5],16600
same,antibody binding signal,[6],189
same,antibody binding signal,[7],330
same,antibody binding signal,[8],223
same,antibody binding signal,[9],78.6
same,antibody binding signal,[10],110
same,antibody binding signal,[11],151
SGKDNKAAAGETPSP,antibody binding signal,[1],459
same,antibody binding signal,[2],4810
same,antibody binding signal,[3],1970
same,antibody binding signal,[4],1220
same,antibody binding signal,[5],1870
same,antibody binding signal,[6],230
same,antibody binding signal,[7],369
same,antibody binding signal,[8],126
same,antibody binding signal,[9],608
same,antibody binding signal,[10],113
same,antibody binding signal,[11],540
SGTEKKPATGETPSQ,antibody binding signal,[1],27400
same,antibody binding signal,[2],30900
same,antibody binding signal,[3],351
same,antibody binding signal,[4],310
same,antibody binding signal,[5],21400
same,antibody binding signal,[6],268
same,antibody binding signal,[7],710
same,antibody binding signal,[8],525
same,antibody binding signal,[9],162
same,antibody binding signal,[10],1710
same,antibody binding signal,[11],296
GKEKKTATGGTPSPP,antibody binding signal,[1],421
same,antibody binding signal,[2],355
same,antibody binding signal,[3],2910
same,antibody binding signal,[4],2540
same,antibody binding signal,[5],2930
same,antibody binding signal,[6],190
same,antibody binding signal,[7],175
same,antibody binding signal,[8],122
same,antibody binding signal,[9],131
same,antibody binding signal,[10],90.3
same,antibody binding signal,[11],100
GTEKKPAAGGTPSQS,antibody binding signal,[1],179
same,antibody binding signal,[2],429
same,antibody binding signal,[3],3900
same,antibody binding signal,[4],1060
same,antibody binding signal,[5],1140
same,antibody binding signal,[6],178
same,antibody binding signal,[7],586
same,antibody binding signal,[8],1980
same,antibody binding signal,[9],124
same,antibody binding signal,[10],295
same,antibody binding signal,[11],1570
STPPSGKDNKTAAGG,antibody binding signal,[1],9010
same,antibody binding signal,[2],10000
same,antibody binding signal,[3],1930
same,antibody binding signal,[4],29700
same,antibody binding signal,[5],4000
same,antibody binding signal,[6],433
same,antibody binding signal,[7],425
same,antibody binding signal,[8],174
same,antibody binding signal,[9],226
same,antibody binding signal,[10],129
same,antibody binding signal,[11],241
TSSTPPSGKDKKAAT,antibody binding signal,[1],923
same,antibody binding signal,[2],903
same,antibody binding signal,[3],194
same,antibody binding signal,[4],40200
same,antibody binding signal,[5],718
same,antibody binding signal,[6],153
same,antibody binding signal,[7],357
same,antibody binding signal,[8],112
same,antibody binding signal,[9],185
same,antibody binding signal,[10],96.2
same,antibody binding signal,[11],127
ENKPAAGGAPSPPGA,antibody binding signal,[1],2640
same,antibody binding signal,[2],4220
same,antibody binding signal,[3],1660
same,antibody binding signal,[4],350
same,antibody binding signal,[5],1220
same,antibody binding signal,[6],318
same,antibody binding signal,[7],331
same,antibody binding signal,[8],246
same,antibody binding signal,[9],193
same,antibody binding signal,[10],149
same,antibody binding signal,[11],249
SGTDNKPATGEAPSP,antibody binding signal,[1],48700
same,antibody binding signal,[2],48700
same,antibody binding signal,[3],1260
same,antibody binding signal,[4],198
same,antibody binding signal,[5],38900
same,antibody binding signal,[6],884
same,antibody binding signal,[7],843
same,antibody binding signal,[8],433
same,antibody binding signal,[9],193
same,antibody binding signal,[10],288
same,antibody binding signal,[11],166

# — the supplement of paper PMC10441789
